Experimental findings from the antibiotic and cytotoxicity screens of Wong et al. (2023) are described below.

The other results are listed elsewhere or left out.

For experiment [1], the system named is HSkMC (human skeletal muscle cells). Description: cytotoxicity call (relative viability < 0.9). As to conditions: 10 µM.
Experiment [2] relates to HepG2. Description: cytotoxicity call (relative viability < 0.9). As to conditions: 10 µM.
The test system of experiment [3] is S. aureus RN4220. Description: growth inhibition call (relative growth <= 0.2). The note with it: 50 µM.

For the compound `CCCNC(=O)N(C)C[C@H]1Oc2ncc(-c3ccc(C(=O)N(C)C)cc3)cc2C(=O)N([C@@H](C)CO)C[C@@H]1C`, the cytotoxicity call in experiment [1] and in experiment [2] was “inactive” throughout. For the same compound, the growth inhibition call in experiment [3] is “inactive”.

Regarding `C[C@H](NC(=O)C[C@@H]1CC[C@@H](NC(=O)CN2CCOCC2)[C@H](CO)O1)c1ccccc1`, the cytotoxicity call in experiment [1] and in experiment [2] was “inactive” each time. Besides, the growth inhibition call in experiment [3] was “inactive”.

As to `CN1CCN(C(=O)C[C@@H]2CC[C@H](NC(=O)c3ccc4c(c3)OCO4)[C@@H](CO)O2)CC1`, the cytotoxicity call in experiment [1] and in experiment [2] was “inactive” each time. Moreover, the growth inhibition call in experiment [3] was “inactive”.

`C[C@H](CO)N1C[C@H](C)[C@@H](CN(C)S(=O)(=O)c2ccccc2)Oc2ccc(NC(=O)Nc3cccc4ccccc34)cc2C1=O`: the cytotoxicity call in experiment [1] and in experiment [2] was “inactive” throughout. Moreover, the growth inhibition call in experiment [3] was “inactive”.

Take `O=C(O)COC(=O)Cc1ccccc1Nc1c(Cl)cccc1Cl`: the cytotoxicity call in experiment [1] and in experiment [2] was “inactive” each time. Besides, the growth inhibition call in experiment [3] was “inactive”.

With `C[C@@H]1CN([C@H](C)CO)C(=O)c2cc(NC(=O)Nc3ccccc3)ccc2O[C@@H](C)CCCCO[C@H]1CN(C)Cc1ccncc1`, the cytotoxicity call in experiment [1] and in experiment [2] was “inactive” in each case. The growth inhibition call in experiment [3] was “inactive”.

Regarding `C[C@H]1COc2c(C3(N)CC3)c(F)cc3c(=O)c(C(=O)O)cn1c23`, the cytotoxicity call in experiment [1] and in experiment [2] was “inactive” throughout. For the same compound, the growth inhibition call in experiment [3] was “active”.

As for `O=C(C[C@@H]1CC[C@H]2[C@@H](COC[C@H](O)CN2C(=O)Nc2ccc(C(F)(F)F)cc2)O1)NCCc1ccncc1`, the cytotoxicity call in experiment [1] and in experiment [2] was “inactive” throughout. Moreover, the growth inhibition call in experiment [3] was “active”.

With `C[C@H]1CN([C@@H](C)CO)C(=O)Cc2cc(NC(=O)Nc3ccc(F)cc3)ccc2O[C@H]1CN(C)Cc1ccc(Oc2ccccc2)cc1`, the cytotoxicity call in experiment [1] and in experiment [2] was “active” each time. Further, the growth inhibition call in experiment [3] is “inactive”.

`CN(C)C(=O)c1cccc(-c2cccc(-c3nc(C(=O)NCc4ccccc4)cc4c3[C@H](CCO)N([S@@](=O)C(C)(C)C)C4)c2)c1`: the cytotoxicity call in experiment [1] and in experiment [2] was “inactive” throughout. The growth inhibition call in experiment [3] was “inactive”.

Consider `C[C@]1(C(=O)NCC(F)(F)F)c2ccccc2C(=O)N(Cc2cc(F)cc(C(F)(F)F)c2)[C@H]1c1ccc(CO)cc1`, for which the cytotoxicity call in experiment [1] and in experiment [2] was “inactive” throughout. Moreover, in experiment [3], the growth inhibition call was “inactive”.

With `Cc1ccc(S(=O)(=O)N(C)C[C@@H]2Oc3ccc(NS(=O)(=O)c4cccs4)cc3C(=O)N([C@@H](C)CO)C[C@H]2C)cc1`, the cytotoxicity call in experiment [1] and in experiment [2] was “inactive” in each case. Besides, in experiment [3], the growth inhibition call was “inactive”.

As for `C[C@H](CO)N1C[C@H](C)[C@@H](CN(C)Cc2ccc(C(=O)O)cc2)OCCCC[C@H](C)Oc2ccc(NC(=O)CCC(F)(F)F)cc2C1=O`, the cytotoxicity call in experiment [1] and in experiment [2] was “inactive” throughout. Moreover, the growth inhibition call in experiment [3] was “inactive”.

In the case of `CSc1nc(C)nc2ccccc12`, the cytotoxicity call in experiment [1] and in experiment [2] was “inactive” in each case. Also, the growth inhibition call in experiment [3] was “inactive”.

`S=C1SCN(Cc2ccccc2)CN1Cc1ccccc1`: the cytotoxicity call in experiment [1] is “inactive”. Moreover, in experiment [2], the cytotoxicity call was “active”. The growth inhibition call in experiment [3] is “inactive”.

On to `C[C@@H]1CN([C@@H](C)CO)C(=O)Cc2cc(NC(=O)CCN3CCOCC3)ccc2O[C@@H]1CN(C)C(=O)Nc1ccccc1`, for which the cytotoxicity call in experiment [1] and in experiment [2] was “inactive” throughout. In experiment [3], the growth inhibition call is “inactive”.

As to `O=C1CN(/N=C/c2ccc([N+](=O)[O-])o2)C(=O)N1`, the cytotoxicity call in experiment [1] was “inactive”. Moreover, the cytotoxicity call in experiment [2] is “active”. Further, the growth inhibition call in experiment [3] was “active”.

In the case of `C[C@@H]1CN([C@@H](C)CO)C(=O)c2cc(C#CCN(C)C)cnc2O[C@H]1CN(C)C(=O)CCN1CCCCC1`, the cytotoxicity call in experiment [1] and in experiment [2] was “inactive” throughout. Moreover, in experiment [3], the growth inhibition call was “inactive”.

Take `C[C@H](CO)N1C[C@H](C)[C@@H](CN(C)C(=O)Nc2ccc(C(F)(F)F)cc2)Oc2ccc(NC(=O)CCCCCC(=O)Nc3ccccc3N)cc2CC1=O`: the cytotoxicity call in experiment [1] and in experiment [2] was “inactive” each time. The growth inhibition call in experiment [3] was “inactive”.

Regarding `Cc1ccccc1C(=O)Nc1ccc(C(=O)N2CCCC(O)c3cc(Cl)ccc32)c(C)c1` (stereo unspecified), the cytotoxicity call in experiment [1] and in experiment [2] was “inactive” throughout. Moreover, the growth inhibition call in experiment [3] was “inactive”.

As to `COc1ccc(S(=O)(=O)N[C@@H]2CC[C@H](CC(=O)N3CCN(c4ccccc4)CC3)O[C@@H]2CO)cc1`, the cytotoxicity call in experiment [1] and in experiment [2] was “inactive” each time. In addition, the growth inhibition call in experiment [3] is “inactive”.

For the compound `COc1ccc(CN(C)C[C@H]2OCCCC[C@H](C)Oc3ccc(NS(=O)(=O)c4ccc(F)cc4)cc3C(=O)N([C@H](C)CO)C[C@H]2C)cc1`, the cytotoxicity call in experiment [1] and in experiment [2] was “inactive” each time. The growth inhibition call in experiment [3] was “inactive”.

As for `C[C@@H]1CN([C@H](C)CO)C(=O)c2cc(NC(=O)Cc3ccccc3)ccc2O[C@@H](C)CCCCO[C@@H]1CN(C)C(=O)c1ccccc1`, the cytotoxicity call in experiment [1] and in experiment [2] was “inactive” in each case. Moreover, the growth inhibition call in experiment [3] is “inactive”.

`CC(C)NC(=O)N(C)C[C@H]1Oc2cc(-c3ccccc3F)ccc2S(=O)(=O)N([C@H](C)CO)C[C@@H]1C`: the cytotoxicity call in experiment [1] and in experiment [2] was “inactive” throughout. Also, the growth inhibition call in experiment [3] is “inactive”.

For `Cc1noc(C)c1S(=O)(=O)N(C)C[C@H]1Oc2ccc(NS(C)(=O)=O)cc2C(=O)N([C@@H](C)CO)C[C@H]1C`, the cytotoxicity call in experiment [1] and in experiment [2] was “inactive” in each case. Besides, the growth inhibition call in experiment [3] is “inactive”.

`C[C@@H]1CCCCO[C@@H](CN(C)Cc2ccc(Cl)c(Cl)c2)[C@H](C)CN([C@@H](C)CO)C(=O)c2cc(NC(=O)Nc3ccc(C(F)(F)F)cc3)ccc2O1`: in experiment [1], the cytotoxicity call is “inactive”. In addition, in experiment [2], the cytotoxicity call is “active”. Moreover, in experiment [3], the growth inhibition call is “inactive”.

As for `C[C@H]1CN([C@@H](C)CO)S(=O)(=O)c2ccc(C#Cc3ccccc3)cc2O[C@@H]1CN(C)S(C)(=O)=O`, the cytotoxicity call in experiment [1] and in experiment [2] was “inactive” in each case. The growth inhibition call in experiment [3] is “inactive”.
